From article PMC10776578, “Epstein-Barr virus-driven B cell lymphoma mediated by a direct LMP1-TRAF6 complex” (Nature Communications, 2024) come the findings set out here.

By UniProt entry, the sequences of proteins in these tests, tags left out. Where a name states a change or a piece, a line headed by the entry shows the natural chain unless it says otherwise. Chains listed by the source or under a name are the forms on record and can include a tag or linker. Residues count along the entry.
GST-CD40_(216-277) (P25942, residues 216-277): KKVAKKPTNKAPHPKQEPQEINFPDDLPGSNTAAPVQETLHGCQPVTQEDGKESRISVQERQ
GST-CD40_(216-277) A233xAxxA (P25942, form named): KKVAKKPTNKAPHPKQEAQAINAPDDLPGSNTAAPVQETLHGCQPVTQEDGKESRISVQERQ
UniProt O00463, residues 363-557: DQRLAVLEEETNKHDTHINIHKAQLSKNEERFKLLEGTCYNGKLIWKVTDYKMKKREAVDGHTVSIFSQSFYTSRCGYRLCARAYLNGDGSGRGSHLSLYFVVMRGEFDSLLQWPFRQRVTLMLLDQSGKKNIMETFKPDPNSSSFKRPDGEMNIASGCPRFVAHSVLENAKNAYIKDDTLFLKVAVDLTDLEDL

No constants are given. Whether binding was seen depends on the method and setting. Some entries that bind do so weakly or less than the wild type. Tags and fused reporters may be left off the sequences shown.

Test [1] deals with GST-LMP1_(181-386) A204xAxA (Epstein-Barr virus) (UniProt P03230). Briefly: pull-down; both purified.
Test [2] deals with GST-LMP1_(181-386) (Epstein-Barr virus) (UniProt P03230). Description: pull-down; both purified.
The target in test [3] is LMP1-derived CTAR2 peptide 9 (371-386, Y384 and Y385 to AA) (Epstein-Barr virus) (UniProt P03230). Description: peptide or protein array; peptides spot-synthesised on cellulose membranes in duplicate, incubated with 10 µg per mL purified His-TRAF6 or His-TRAF2 in PBST with 5% milk powder for 4 h at RT; detection by TRAF-specific antibodies; both purified.
Test [4] addresses LMP1-derived CTAR2 peptide 10 (371-386, P379xQxS to AxAxA) (Epstein-Barr virus) (UniProt P03230). Described as above.
Test [5] deals with LMP1-derived CTAR2 peptide 12 (357-386, P379xQxS to AxAxA) (Epstein-Barr virus) (UniProt P03230). Described as above.
In test [6] the target is GST-LMP1_(181-386) Y384G (Epstein-Barr virus) (UniProt P03230). Briefly: pull-down; both purified.
Test [7] deals with GST-LMP1_(181-386) A379xAxxA (Epstein-Barr virus) (UniProt P03230). Description: AlphaScreen or HTRF; AlphaScreen PPI assay: His-TRAF and GST-LMP1, GST-CD40 or GST-RANK in PBS with 0.5% BSA and 0.1% Tween-20, 1 h at RT; standard 300 nM His-TRAF and 100 nM GST protein if not indicated otherwise; for KD His-TRAF6 at different concentrations, fit one site-specific binding with hill slope; both …. A general note: Bead proximity is the source of the signal in Alpha formats.

The target of test [8] is GST-LMP1_(181-386) V380A (Epstein-Barr virus) (UniProt P03230). Described as above.
In test [9] the target is GST-CD40_(216-277) A233xAxxA (human) (UniProt P25942). Described as above.
Test [10] addresses GST-CD40_(216-277) (human) (UniProt P25942). The description is as above.
In test [11] the target is GST-LMP1_(181-386) (Epstein-Barr virus) (UniProt P03230). The description is as above.
For test [12], the target named is T1, GST-RANK_(314-355) (human) (UniProt Q9Y6Q6).
T1 sequence: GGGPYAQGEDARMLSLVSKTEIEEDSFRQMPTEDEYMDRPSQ
The description is as above.

Test [13] deals with T2, His-TRAF6_(310-522) (human) (UniProt Q9Y4K3).
T2 sequence: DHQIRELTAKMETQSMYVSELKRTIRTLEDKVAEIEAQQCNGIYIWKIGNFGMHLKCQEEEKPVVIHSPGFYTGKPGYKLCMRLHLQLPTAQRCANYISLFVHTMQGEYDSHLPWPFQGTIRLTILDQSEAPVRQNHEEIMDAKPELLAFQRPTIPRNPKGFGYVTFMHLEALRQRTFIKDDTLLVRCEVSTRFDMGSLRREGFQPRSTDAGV
Description: AlphaScreen or HTRF; AlphaScreen PPI assay in competition: GST-LMP1 or GST-CD40 with His-TRAF6 (dose-response of TRAF6 inhibitor or control peptide, 4-parameter fit) or GST-LMP1 with His-TRAF2 (30 µM peptide); both purified.

Turning to “His-TRAF5_(363-557) (from UniProt O00463 363-557) (domain or fragment)”, in test [1], the binding entry is given as “no binding”.

B1: His-TRAF1_(226-416) (domain or fragment)
chain: RERILSLEQRVVELQQTLAQKDQALGKLEQSLRLMEEASFDGTFLWKITNVTRRCHESACGRTVSLFSPAFYTAKYGYKLCLRLYLNGDGTGKRTHLSLFIVIMRGEYDALLPWPFRNKVTFMLLDQNNREHAIDAFRPDLSSASFQRPQSETNVASGCPLFFPLSKLQSPKHAYVKDDTMFLKCIVETST
notes: source: E. coli BL21 Codon Plus RIPL, purified (Ni-NTA)
With B1, the binding entry in test [1] was “no binding”.

B2: His-TRAF3_(375-568) (domain or fragment, UniProt Q13114 375-568)
chain: ARNTGLLESQLSRHDQMLSVHDIRLADMDLRFQVLETASYNGVLIWKIRDYKRRKQEAVMGKTLSLYSQPFYTGYFGYKMCARVYLNGDGMGKGTHLSLFFVIMRGEYDALLPWPFKQKVTLMLMDQGSSRRHLGDAFKPDPNSSSFKKPTGEMNIASGCPVFVAQTVLENGTYIKDDTIFIKVIVDTSDLPDP
As to B2, the binding result in test [2] is recorded as “binds”.

B3: His-TRAF6_(310-522) (domain or fragment)
chain: DHQIRELTAKMETQSMYVSELKRTIRTLEDKVAEIEAQQCNGIYIWKIGNFGMHLKCQEEEKPVVIHSPGFYTGKPGYKLCMRLHLQLPTAQRCANYISLFVHTMQGEYDSHLPWPFQGTIRLTILDQSEAPVRQNHEEIMDAKPELLAFQRPTIPRNPKGFGYVTFMHLEALRQRTFIKDDTLLVRCEVSTRFDMGSLRREGFQPRSTDAGV
notes: also called His-T6; recombinant TRAF6 wild-type; source: E. coli BL21 Codon Plus RIPL, purified (Ni-NTA)
With B3, the binding result is listed as “no binding (tested: 10 µg per mL)” in [3]; “no binding (tested: 10 µg per mL)” in test [4]; “no binding (tested: 10 µg per mL)” in [5]; “no binding” in [6]; “no binding” in test [7]; “no binding” in [8]. The binding result in [9] is “no binding”.

B4: His-TRAF6_(310-522) F471A (domain or fragment, UniProt Q9Y4K3 310-522)
chain: DHQIRELTAKMETQSMYVSELKRTIRTLEDKVAEIEAQQCNGIYIWKIGNFGMHLKCQEEEKPVVIHSPGFYTGKPGYKLCMRLHLQLPTAQRCANYISLFVHTMQGEYDSHLPWPFQGTIRLTILDQSEAPVRQNHEEIMDAKPELLAFQRPTIPRNPKGAGYVTFMHLEALRQRTFIKDDTLLVRCEVSTRFDMGSLRREGFQPRSTDAGV
Turning to B4, the binding result in test [10] and in test [11] was “no binding” in each case.

B5: His-TRAF6_(310-522) Y473A (domain or fragment, UniProt Q9Y4K3 310-522)
chain: DHQIRELTAKMETQSMYVSELKRTIRTLEDKVAEIEAQQCNGIYIWKIGNFGMHLKCQEEEKPVVIHSPGFYTGKPGYKLCMRLHLQLPTAQRCANYISLFVHTMQGEYDSHLPWPFQGTIRLTILDQSEAPVRQNHEEIMDAKPELLAFQRPTIPRNPKGFGAVTFMHLEALRQRTFIKDDTLLVRCEVSTRFDMGSLRREGFQPRSTDAGV
B5: the binding result in test [10] and in [11] was “no binding” each time.

B6: His-TRAF6_(310-522) R392A (domain or fragment, UniProt Q9Y4K3 310-522)
chain: DHQIRELTAKMETQSMYVSELKRTIRTLEDKVAEIEAQQCNGIYIWKIGNFGMHLKCQEEEKPVVIHSPGFYTGKPGYKLCMALHLQLPTAQRCANYISLFVHTMQGEYDSHLPWPFQGTIRLTILDQSEAPVRQNHEEIMDAKPELLAFQRPTIPRNPKGFGYVTFMHLEALRQRTFIKDDTLLVRCEVSTRFDMGSLRREGFQPRSTDAGV
For the molecule B6, the binding entry in test [11] and in test [12] was “no binding” in each case.

For DRQIKIWFQNRRMKWKK [Antennapedia leader peptide …], the binding entry in [13] is “no binding”.
